# Measured values published in PubChem BioAssay AID686971 (National Center for Advancing Translational Sciences (NCATS), 2013).
# The whole screen tested about 360,000 compounds, of which about 7,500 (2.1%) were called active. Inconclusive means that the source gave no clear call. Such entries were picked first, then a sample of the others. Calls follow the shape of the dose curve; as a rule, active = well fitted cell-killing curve with a large enough effect; inconclusive = small, poorly fitted or top-dose-only effect, or effect the other way, or another doubt; inactive = no such curve, though single readings can be large or run the other way. Potencies of inconclusive entries are left out as doubtful fits.
# Assay: qHTS for induction of synthetic lethality in tumor cells producing 2HG: qHTS for the HT-1080-IDH1KD cell line;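 as to activity, negative = toxicity: 0% = DMSO wells and -100% = cell-free medium wells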
# Conditions: HT-1080 IDH1 knockdown viability, ATP luminescence, 48 h; activity, negative = toxicity: at 46.1 µM (top of the series) unless noted
# Summary of the method: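 Assay cells: HT-1080 with IDH1 knockdown, 750 per well, RPMI/5% FBS. Exposure: 48 h at 37 °C following 2 h pre-incubation. Read: CellTiter-Glo luminescence; fitted concentration-response, curve class assigned.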
# Potency is read from the fitted curve at half-maximal effect; tags tell the direction and shape of the fitted curve.
SMILES,Potency,"activity, negative = toxicity"
COc1ccc(C(=O)O/N=C(\N)Cc2ccc(Cl)cc2Cl)cc1OC,"inconclusive [cytotoxic, single point]",–
O=Nc1ccc(NO)c2ccccc12,active: 16.4 µM,–
CO/N=C/CC(=O)c1cnc(-c2ccccc2)s1,inactive,–
CC(=O)c1sc2c(c1OC(=O)c1ccccc1)c(=O)n(-c1ccccc1)c(=S)n2-c1ccccc1,"inconclusive [cytotoxic, full curve]",–
COc1cc(C(=S)N2CCN(c3ccccc3Cl)CC2)cc(O)c1O,"inconclusive [cytotoxic, single point]",–
Cc1nc(SCC(=O)Nc2c(C)nn(C)c2C)c2cnn(-c3ccccc3)c2n1,"inconclusive [cytotoxic, single point]",–
Nc1nonc1C(=O)N/N=C/c1cc(Br)ccc1O,active: 2.06 µM,–
C=CCNC(=S)N/N=C/c1ccc(C)cc1C,active: 16.4 µM,–
Cc1ccc(-c2noc(CSc3nnc(-c4ccncc4)n3-c3ccc(F)cc3)n2)cc1,"inconclusive [cytotoxic, single point]",–
CCc1nc2c(OCC(=O)c3ccc(Cl)cc3Cl)cccn2c1N(C)C(=O)COc1ccccc1,"inconclusive [cytotoxic, single point]",–
O=C(CC1SC(=Nc2ccccc2)N(CCc2c[nH]c3ccccc23)C1=O)Nc1ccccc1F (stereo not given),active: 20.6 µM,–
c1ccc(-c2nc(-c3ccncc3)n[nH]2)nc1,"inconclusive [cytotoxic, single point]",–
c1ccn2cc(-c3ccc4c(c3)OCCO4)nc2c1,"inconclusive [cytotoxic, single point]",–
CCn1ccnc1CN(C)C(=O)c1cc(COc2ccc(OC)c3ccccc23)on1,"inconclusive [cytotoxic, partial curve]",–
Cc1cc(Cl)ccc1NNC(=O)c1snnc1C,"inconclusive [cytotoxic, single point]",–
CC(C)(C)NC(=O)CSc1nc2ccc(NC(=O)CSc3nnnn3Cc3ccccc3)cc2s1,active: 16.4 µM,–
CCOC(=O)C1=C(COC(=O)/C=C/c2ccc(SC)cc2)NC(=O)NC1C (stereo not given),inactive,–
CC(=O)OC(C(=O)NC1CCCCC1)c1ccccc1F (stereo not given),inactive,–
CCCCC(=O)NC(c1ccc(C(C)C)cc1)c1ccc2cccnc2c1O (stereo not given),"inconclusive [cytotoxic, full curve]",–
CCOC(=O)C1CCN(CC(=O)Nc2ccc(OC)c(Cl)c2)CC1,inactive,–
O=C(CCl)NCCN1C(=O)S/C(=C\c2cccnc2)C1=O,"inconclusive [cytotoxic, single point]",–
Cc1ccc(S(=O)(=O)Nc2ccccc2N2CCCCC2)cc1,"inconclusive [cytotoxic, single point]",–
CCSC1=N/C(=C/c2ccsc2)C(=O)N1c1ccccc1,inactive,–
O=C(NCC(c1cccs1)N1CCOCC1)c1ccc(Cl)nc1 (stereo not given),"inconclusive [cytotoxic, single point]",–

SMILES,Potency,"activity, negative = toxicity"
CC(C)Nc1ncnc2c1cnn2-c1ccc(Cl)cc1,inactive,–
COc1ccc(S(=O)(=O)NC2CCCC2)c(Cl)c1Cl,inactive,–
CCCCn1c(=N)n(CC(O)COc2ccc(C)cc2)c2ccccc21 (stereo not given),active: 11.2 µM,–
Clc1ccc(-c2nc(NCCCN3CCOCC3)c3ccccc3n2)cc1,"inconclusive [cytotoxic, single point]",–
CCN(CC)c1ccc(/C=C2\SC(N)=NC2=O)cc1,inactive,–
C=CCC[C@H](Cc1ccc(F)cc1)C(=O)OC[C@@H](NC(=O)[C@@H](CC=C)CC(=O)N[C@@H](CO)Cc1ccccc1)C(C)(C)C,"inconclusive [cytotoxic, single point]",–
CCCc1ccc(-c2cc(C(=O)NC3=NCCS3)c3ccccc3n2)cc1,"inconclusive [cytotoxic, single point]",–
O=C(Cc1ccc(Br)cc1)Nc1ncc([N+](=O)[O-])s1,"inconclusive [cytotoxic, single point]",–
COc1ccc(S(=O)(=O)N2CCC[C@H]2C(=O)N2CCC[C@H]2C(=O)NCc2ccc(F)cc2F)cc1C,"inconclusive [cytotoxic, single point]",–
Cc1ccc(C(C[N+](=O)[O-])c2c(N)n(C)c(=O)n(C)c2=O)cc1 (stereo not given),"inconclusive [cytotoxic, single point]",–
COc1cc2c(cc1NC(=O)c1cccc(S(=O)(=O)N(C)C)c1)oc1ccccc12,"inconclusive [cytotoxic, partial curve]",–
COc1ccc(CC(=O)NCC(=O)N/N=C/c2cc(Br)ccc2OC)cc1,"inconclusive [cytotoxic, partial curve]",–
Cc1noc(C)c1C(=O)N1CCC1(C)C(=O)NS(=O)(=O)Cc1cccc(Cl)c1 (stereo not given),inactive,–
CCOC(=O)c1cccc(NC(=O)/C(=C\c2ccccc2)NC(=O)c2ccccc2Cl)c1,"inconclusive [cytotoxic, single point]",–
COc1ccc(/C=N/NC(=O)c2cccnc2)cc1COc1ccc(NC(C)=O)cc1,"inconclusive [cytotoxic, full curve]",–
C=CCn1c(Cc2ccccc2)nc2c(cnn2-c2ccccc2)c1=O,"inconclusive [cytotoxic, single point]",–
NC(=O)c1cc(-c2ccccc2)sc1NC(=O)CN1CCCCC1,active: 14.6 µM,–
CC(C)CCC(CCNCc1ccccn1)c1ccc(Cl)cc1 (stereo not given),"inconclusive [cytotoxic, single point]",–
CCN1C(=O)[C@H]2[C@@H](c3ccc(-c4ccc(C(C)=O)cc4)c(OC)c3)N3CCCC[C@@]3(C(=O)OC)[C@H]2C1=O,inactive,–
OC(CCCN1CCCCC1)(c1ccccc1)c1ccc(C(F)(F)F)cc1 (stereo not given),"inconclusive [cytotoxic, single point]",–
COc1cccc(CC2(CO)CCCN(Cc3cc(F)ccc3-n3cccn3)C2)c1 (stereo not given),"inconclusive [cytotoxic, single point]",–
COc1ccc(C)cc1N(C(=O)c1snc(C(N)=O)c1N)C(C(=O)NC1CCCCC1)c1ccc(C)o1 (stereo not given),"inconclusive [cytotoxic, partial curve, poor fit]",–
COc1cccc(-c2cc(C(F)(F)F)nc(N3CCN(c4ccccc4)CC3)n2)c1,inactive,–
CSc1ccc(Cn2c(C)c(C(=O)NCc3cccc(Cl)c3)sc2=O)cc1,"inconclusive [cytotoxic, single point]",–

SMILES,Potency,"activity, negative = toxicity"
Cc1ccc(S(=O)(=O)Nc2ccccc2C(=O)N2CCCCC2)cc1,inactive,–
N#Cc1c(Sc2ncc(C(F)(F)F)cc2Cl)nsc1C/C=N\OCc1ccccc1Br,"inconclusive [cytotoxic, single point]",–
CN(C)C(CNC(=O)c1cccc(S(=O)(=O)N2CCN(c3ccc(F)cc3)CC2)c1)c1ccccc1 (stereo not given),active: 14.6 µM,–
C=CCN1C(=O)/C(=C/c2ccc(O)c(OC)c2)S/C1=N/c1nccs1,–,inconclusive: 3.98%
COc1cc(N)c(Cl)cc1C(=O)N[C@H]1CCN(CCCOc2ccc(F)cc2)C[C@H]1OC,"inconclusive [cytotoxic, single point]",–
Cc1ccc(S(=O)(=O)NCCN=C(CN2CCOCC2)NS(=O)(=O)c2ccc(C)cc2)cc1,inactive,–
COc1ccc2nc(Nc3ccccc3OC)sc2c1,"inconclusive [cytotoxic, partial curve]",–
Oc1ccc(C=Nc2cccc3ccccc23)c(O)c1,"inconclusive [cytotoxic, partial curve]",–
COc1ccc(C(=O)NC(NC(=O)c2ccc(OC)cc2)c2ccccc2F)cc1,"inconclusive [cytotoxic, partial curve]",–
Cc1[nH]n(-c2ccccc2)c(=O)c1N=O,"inconclusive [cytotoxic, single point]",–
CCOC(=O)C1=C[C@@H](C(C)(C)C)N(S(=O)(=O)c2ccc(C)cc2)[C@H]1c1ccc(Cl)c(Cl)c1,active: 14.6 µM,–
COc1ccccc1[C@H]1C(c2ccc(F)cc2)=NN(c2ccccc2)[C@@H]1CO,"inconclusive [cytotoxic, single point]",–
OC(c1ccc(Cl)c(Cl)c1)c1ncc(-c2ccc(Cl)cc2)[nH]1 (stereo not given),"inconclusive [cytotoxic, single point]",–
Cc1ccc(/C=N/NC(=O)Cn2cnc3ccccc32)cc1,"inconclusive [cytotoxic, single point]",–
O=C(NC(=S)Nc1cccc(Cl)c1)c1cncc(Br)c1,"inconclusive [cytotoxic, single point]",–
Cc1ccc(NC(=O)c2ccc(Cl)nc2)cc1S(=O)(=O)N1CCOCC1,"inconclusive [cytotoxic, single point]",–
Nc1c(C(=O)NCCN2CCOCC2)c2nc3ccccc3nc2n1-c1cccc(F)c1,inactive,–
CC1(C(=O)NS(=O)(=O)c2ccc(Br)cc2)CCN1C(=O)Cc1ccsc1 (stereo not given),"inconclusive [rising, single point]",–
CNC(=S)N1N=C(c2ccc(C)cc2)CC1c1cc(OC)ccc1OC (stereo not given),active: 20.6 µM,–
O=C(NCCCN1CCN(c2ccc(F)cc2)CC1)NC12CC3CC(CC(C3)C1)C2,active: 14.6 µM,–
CCOC(=O)C1CCCN(c2ncnc3c2cnn3-c2cccc(C)c2)C1 (stereo not given),inactive,–
O=C(Cc1n[nH]c(=O)c2ccccc12)OCC(=O)c1ccc2c(c1)OCCO2,active: 8.2 µM,–
